Assay results reported in article PMC4336329 (PLoS ONE, 2015).
The campaign covered roughly 310,000 compounds. About 2,200 (0.71%) showed an effect of 50% or more. Effects have a minus sign here. The list shows a part of the results.

Each molecule was assayed against human ether-à-go-go-related gene (hERG) potassium channel (human, UniProt Q12809) (assay: primary screen, population patch clamp on CHO cells stably expressing hERG).
Chain of human ether-à-go-go-related gene (hERG) potassium channel (Q12809 whole entry, looked up): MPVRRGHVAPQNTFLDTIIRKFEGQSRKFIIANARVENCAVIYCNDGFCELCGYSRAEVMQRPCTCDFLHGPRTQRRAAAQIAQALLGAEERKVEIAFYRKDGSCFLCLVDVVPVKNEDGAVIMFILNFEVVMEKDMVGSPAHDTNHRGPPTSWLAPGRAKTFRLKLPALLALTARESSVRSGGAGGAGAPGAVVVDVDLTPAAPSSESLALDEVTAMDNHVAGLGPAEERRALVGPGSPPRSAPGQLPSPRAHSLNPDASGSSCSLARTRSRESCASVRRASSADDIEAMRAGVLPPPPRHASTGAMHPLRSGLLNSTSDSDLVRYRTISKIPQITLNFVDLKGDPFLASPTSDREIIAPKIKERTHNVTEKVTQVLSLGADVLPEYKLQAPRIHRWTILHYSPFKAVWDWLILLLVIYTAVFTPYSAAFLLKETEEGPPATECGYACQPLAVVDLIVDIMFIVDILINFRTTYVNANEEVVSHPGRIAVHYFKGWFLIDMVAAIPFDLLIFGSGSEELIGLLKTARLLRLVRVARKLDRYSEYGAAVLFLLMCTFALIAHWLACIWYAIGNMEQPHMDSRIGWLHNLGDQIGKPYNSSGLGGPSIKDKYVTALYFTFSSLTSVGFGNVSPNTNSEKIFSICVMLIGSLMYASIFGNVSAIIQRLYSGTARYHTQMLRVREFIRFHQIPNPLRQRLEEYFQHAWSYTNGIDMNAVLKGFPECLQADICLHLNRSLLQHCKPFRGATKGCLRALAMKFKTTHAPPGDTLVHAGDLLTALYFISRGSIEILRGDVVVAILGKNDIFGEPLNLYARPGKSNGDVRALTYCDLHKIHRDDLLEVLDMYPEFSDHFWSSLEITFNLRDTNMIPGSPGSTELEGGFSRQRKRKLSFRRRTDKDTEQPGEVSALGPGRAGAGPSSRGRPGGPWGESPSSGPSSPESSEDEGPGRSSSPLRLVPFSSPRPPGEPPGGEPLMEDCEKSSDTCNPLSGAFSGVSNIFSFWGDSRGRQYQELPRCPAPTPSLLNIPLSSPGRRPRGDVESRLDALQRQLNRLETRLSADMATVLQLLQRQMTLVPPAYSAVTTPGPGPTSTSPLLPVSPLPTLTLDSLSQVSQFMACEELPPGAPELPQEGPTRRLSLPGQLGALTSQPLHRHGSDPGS

Row | Structure (SMILES) | hERG current change (%, negative = inhibition) at 1uM
1 | O=C(Nc1ccc2c(c1)OCCO2)c1ccc(Cl)cc1 | 12.3%
2 | CNC(=S)N(Cc1ccco1)Cc1cc2cc(OC)ccc2[nH]c1=O | 18.8%
3 | COc1ccc(NC(=O)CSc2nnc(CNc3ccc(C)cc3)n2C)cc1 | 12%
4 | COc1ccc(Cl)cc1NC(=S)NCCCN1CCCC1=O | 10.7%
5 | COc1cc2c(cc1OC)C(NC(=O)c1ccc(C)cc1)CC2=O (centres unmarked) | 7.58%
6 | COc1ccc(S(=O)(=O)N2CCN(C(=O)NC3CCCCC3)CC2)cc1OC | -3.33%
7 | O=C(CCCc1ccccc1)Nc1ccccn1 | 7.28%
8 | CCCn1c2ccccc2c2nnc(SCCN3CCOCC3)nc21 | 3.75%
9 | COc1cccc2cc(C(=O)CS(=O)(=O)c3ccc(C(C)(C)C)cc3)c(=O)oc12 | 12.3%
10 | CN(CC(=O)O/N=C(\N)c1ccccn1)S(=O)(=O)c1ccccc1 | 10.9%
11 | Cc1ccc(C)c(OCc2ccc(C(=O)N3N=C(C(F)F)CC3(O)C(F)F)o2)c1 (centres unmarked) | 19.8%
12 | O=C1C2C3C=CC(C3)C2C(=O)N1CCCCN1C(=O)C2C3C=CC(C3)C2C1=O (centres unmarked) | 3.61%
13 | COc1ccc(C(C(=O)Nc2ccc(C(C)C)cc2)N(C)C(=O)CNC(C)=O)cc1 (centres unmarked) | -1.97%
14 | Fc1ccc(C(CNC(=S)NC2CCCCC2)N2CCOCC2)cc1 (centres unmarked) | 9.37%
15 | CCc1cccc(C)c1NC(=O)COC(=O)Cc1ccsc1 | 12.3%
16 | Cc1c(C(=O)NCC2CCCO2)oc2ccccc12 (centres unmarked) | 6.19%
17 | O=C(Nc1ccccc1F)C1CCN(C(=O)NCc2ccccc2)CC1 | 16.3%
18 | O=C(CSc1ncn[nH]1)Nc1ccc(Cl)c(S(=O)(=O)N2CCOCC2)c1 | 12.5%
19 | CCOc1ccc2ccccc2c1C(=O)Nc1cc(=O)n(C)c(=O)n1C | 5.6%
20 | CN(C(=O)Cn1nc(C(=O)O)c2ccccc2c1=O)c1ccccc1 | 5.29%
21 | COc1cccc(/C=N/NC(=O)c2nc(-c3ccccc3)cc(-c3ccccc3)n2)c1O | 5.88%
22 | CCCC(=O)N=C1SC2CS(=O)(=O)CC2N1c1ccc(-c2nc3ccc(C)cc3s2)cc1 (centres unmarked) | 10.9%
23 | CCCC(=O)Nc1sc2c(c1C(=O)OC)C(C(=O)OC)CC2 (centres unmarked) | 6.32%

Row | Structure (SMILES) | hERG current change (%, negative = inhibition) at 1uM
24 | Clc1cccc(-c2ccnc3nc(-n4cccc4)nn23)c1 | 21.8%
25 | COc1ccc(NC(=O)CN2CCC(C(N)=O)(N3CCCCC3)CC2)c(OC)c1 | 5.15%
26 | COc1cc(CN2CCCC(C)C2)ccc1OCc1ccccc1 (centres unmarked) | -1.95%
27 | O=C(Nc1nc2c(F)c(F)c(F)cc2s1)c1ccco1 | 13.2%
28 | CC(C)CCSc1nc2[nH]ncc2c(=O)[nH]1 | 1.31%
29 | CSCCC(NC(=O)c1ccccc1)C(=O)Nc1ccc(NC(C)=O)cc1 (centres unmarked) | 0.138%
30 | CCc1ccccc1NC(=O)CNCc1ccccc1.[O-][Cl+3]([O-])([O-])O | 14.4%
31 | Cc1ccccc1C(=O)O/N=C(\N)c1ccccc1 | 14.7%
32 | Cc1ccc(CC(=O)Nc2ccc(S(=O)(=O)Nc3ncccn3)cc2)cc1 | 15.6%
33 | COc1cccc(Nc2c(F)c(F)c(F)c(F)c2C(=O)O)c1 | 2.13%
34 | Cc1sc2ncnc(SCC(=O)N(C(C)C)C(C)C)c2c1C | -4.12%
35 | Cc1ccc(C(=O)Nc2cccc(C(F)(F)F)c2)cc1NC(=O)c1cnnc2ccccc12 | 8.15%
36 | COCCNC(=O)CN(C(=O)Cn1nnc2ccccc21)c1cc(C)cc(C)c1 | -10%
37 | CC/C(C)=N/NC(=S)NCc1ccco1 | 12%
38 | O=c1c(Cl)c(NC2CC2)cnn1-c1ccccc1 | 3.96%
39 | COCCNC(=O)C12CC3CC(C1)CC(c1ccccc1)(C3)C2 | 14.4%
40 | O=C(O)CCN1CCc2ccccc21 | 9.91%
41 | Cc1ccsc1C(=O)C1CCCN(Cc2cc(C(C)C)n[nH]2)C1 (centres unmarked) | -5.51%
42 | Cc1ccc(O)c(N=Cc2cccs2)c1 | 3.98%
43 | Cc1ccc(NS(=O)(=O)c2ccc(C)c(NC(=O)COc3ccc4ccccc4c3)c2)c(C)c1 | -3.23%
44 | COC(=O)C1=C(N)Oc2cc(C)n(CC3CCCO3)c(=O)c2C1c1ccccc1OC (centres unmarked) | 4.76%
45 | S=c1[nH]c2ccc(Cl)cc2[nH]1 | 14.3%
46 | O=C(CSc1ncn[nH]1)NCCc1ccc(Cl)cc1Cl | 12.4%

Row | Structure (SMILES) | hERG current change (%, negative = inhibition) at 1uM
47 | COc1ccc(-c2[nH]ncc2CN(C)C(C)c2ccon2)cc1F (centres unmarked) | -4.85%
48 | CC1(C)CC(=O)C2=C(C1)NC(=O)CC2c1cc2c(cc1Br)OCO2 (centres unmarked) | -4.65%
49 | COc1ccc(S(=O)(=O)N2CCCC2CNC(=O)C(=O)NCc2cccs2)cc1 (centres unmarked) | 12.8%
50 | CC1CCN(CCCn2c(SCC(=O)Nc3ccccc3Cl)nc3ccccc3c2=O)CC1 | -34.1%
51 | Cc1cc(C)cc(-n2c(C)cc(/C=N/NC(=O)c3ccncc3)c2C)c1 | 14.3%
52 | O=C(O)[C@H]1NC[C@H]2C[C@H]21 | 11.9%
53 | CC1CN(C(=O)c2ccc(S(=O)(=O)Nc3ccccc3F)cc2)CC(C)O1 (centres unmarked) | 9.45%
54 | CC1CN(CC(O)COc2ccc(C(C)C)cc2)CC(C)O1.Cl (centres unmarked) | 5.14%
55 | COc1cc(/C=N/Nc2nc3ccccc3s2)cc([N+](=O)[O-])c1O | 1.77%
56 | S=c1[nH]nc(-c2cccnc2)n1C1CCCCC1 | 14.9%
57 | Cc1ccc(NC(=S)N2C3CCCC2CC(NC(=O)C2CC2)C3)cc1C (centres unmarked) | 1.33%
58 | C/C(CC(=O)Nc1ccc(C)c(Cl)c1)=N\NC(=O)c1ccccn1 | 14.1%
59 | Cc1ccccc1CN1CCN(CC(=O)NCc2ccccc2)C1=O | 2.94%
60 | Cc1ccc(/C=C/C2=Cc3c(sc(NC(=O)CSc4n[nH]c(N)n4)c3C#N)C(C)(C)C2)o1 | 13.5%
61 | COc1ccc(-c2cc(=O)oc3cc(OCC(=O)N(C)C)ccc23)cc1 | 14%
62 | O=C(NCCN1CCCC1)c1ccc2c(=O)n(CCc3ccccc3)c(=O)[nH]c2c1 | 13.3%
63 | Cc1ccc(C)n1-c1ccncc1 | 7.33%
64 | CCCCn1c(N)c(N(CC(C)C)C(=O)C2=COCCO2)c(=O)[nH]c1=O | 11.4%
65 | COC(=O)CCCC1=CC2=CC(=O)C(C)(OC(=O)c3cccs3)C(=O)C2=CN1CCc1ccccn1 (centres unmarked) | 4.18%
66 | CCc1nnc(NC(=O)CCC(=O)N2CCN(c3ccccn3)CC2)s1 | 5.05%
67 | CC1N=C(c2ccccc2Cl)c2cc(Br)ccc2NC1=O (centres unmarked) | 3.65%
68 | CC(=O)N1CCN(c2ccc(NC(=O)c3ccc(Cl)c(Cl)c3)cc2)CC1 | 3.47%
69 | COc1ccc(Nc2nc(C)cc(C)c2C(N)=O)cc1OC | 14.8%

Row | Structure (SMILES) | hERG current change (%, negative = inhibition) at 1uM
70 | COc1ccc(C2CC(c3ccccc3OC(C)=O)=NN2C(C)=O)cc1 (centres unmarked) | 5.35%
71 | Cn1cc(C(=O)OCC(=O)N2CCCCC2)c2ccccc21 | 16%
72 | Cc1ncoc1C(=O)N1CCCC(N2CCN(c3cccc(C(F)(F)F)c3)CC2)C1 (centres unmarked) | -2.29%
73 | O=C(NC1=C(Nc2ccc(F)cc2)C(=O)c2ccccc2C1=O)c1ccc(Cl)cc1 | 15.1%
74 | CC(Cc1cccs1)NC(=O)Nc1ccccc1 (centres unmarked) | 9.58%
75 | COc1cc(/C=C/C(=O)OCC(=O)c2ccc3c(c2)NC(=O)CO3)ccc1OC(F)F | 8.13%
76 | COc1ccc(-n2cnnc2SCCC#N)cc1 | 6.01%
77 | COc1cccc(NC(=O)N2CCN(C(=O)C(Cc3ccc(OC)c(OC)c3)NC(C)=O)CC2)c1 (centres unmarked) | 2.72%
78 | O=C(O)c1ccccc1SCC(=O)N1CCCCC1 | 3.22%
79 | O=C(Nc1ccccn1)c1cccc(S(=O)(=O)N2CCCC2)c1 | 5.14%
80 | O=C(Nc1cccnc1)c1ccc2c(c1)OCO2 | 12.2%
81 | CCOC(=O)C1=C(C)N=C2c3ccccc3C(=O)C2C1c1ccccc1 (centres unmarked) | 4.87%
82 | CC(=O)N1CCN(c2ccc(Oc3nnnn3-c3ccccc3)cc2)CC1 | -13.8%
83 | c1ccc2c(CCNc3ncnc4nc[nH]c34)cccc2c1 | -0.797%
84 | Cc1ccc2[nH]c(O)c(N=O)c2c1 | 7.8%
85 | CCOc1ccc(NC(=O)CN(c2ccc(OC)c(OC)c2)S(=O)(=O)c2ccc(C)cc2)cc1 | 17.1%
86 | CCN1CCN(C(=O)C2CCC(=O)N(CCCN3CCCC3=O)C2)CC1 (centres unmarked) | 3.96%
87 | COc1ccc(C2C(C#N)=C(N)OC3=C2C(=O)CC(C)(C)C3)cc1 (centres unmarked) | 12.7%
88 | COc1cc(CC(=O)NCc2ccc3c(c2)OCO3)cc(OC)c1OC | 15%
89 | CCc1ccc2c(c1)/C(=C/C(=O)c1cccs1)C(=O)N2 | 12.8%
90 | Cc1cc(C(=O)N2CCCC(N3CCN(c4cccc(C(F)(F)F)c4)CC3)C2)c(C)o1 (centres unmarked) | 5.61%
91 | O=C(O)CSc1cccc2cccc(C(=O)O)c12 | 7.81%
92 | CC(C)Nc1nc(NC(C)C)nc(OCCOC(=O)c2ccccc2)n1 | -3.48%
